Molecules are shown by their SMILES. Out of some 48,000 compounds screened, about 550 (1.1%) were called active. About 4% were inconclusive and are not listed. Rule as the data show it: active = potency below about 15 µM; inconclusive = mostly about 16 µM to 33 µM; inactive = weaker than that. This is one part of the list. Some results are limits rather than exact numbers.

The source of these data is PubChem BioAssay AID360 (National Center for Advancing Translational Sciences (NCATS), 2006).
Potency is read from the fitted curve at half-maximal effect.

UniProt P04062, sequence (P04062 whole entry, looked up): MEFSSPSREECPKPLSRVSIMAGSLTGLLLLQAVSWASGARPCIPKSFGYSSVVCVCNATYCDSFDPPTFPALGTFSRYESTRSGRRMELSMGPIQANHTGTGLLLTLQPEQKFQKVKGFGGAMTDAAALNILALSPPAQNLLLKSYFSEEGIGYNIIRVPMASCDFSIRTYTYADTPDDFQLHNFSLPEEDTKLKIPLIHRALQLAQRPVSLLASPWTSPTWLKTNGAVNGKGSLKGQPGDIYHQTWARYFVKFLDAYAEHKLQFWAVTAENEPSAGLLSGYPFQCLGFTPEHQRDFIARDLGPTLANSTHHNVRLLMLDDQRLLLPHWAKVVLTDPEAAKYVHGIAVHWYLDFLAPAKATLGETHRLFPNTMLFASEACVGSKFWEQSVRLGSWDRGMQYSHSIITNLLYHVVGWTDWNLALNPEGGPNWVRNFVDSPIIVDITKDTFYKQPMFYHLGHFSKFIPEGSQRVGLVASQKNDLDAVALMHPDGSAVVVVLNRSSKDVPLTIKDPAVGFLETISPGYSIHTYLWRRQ

In this experiment the target is Lysosomal acid glucosylceramidase (Homo sapiens) (UniProt P04062). Kind of experiment: Glucocerebrosidase.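 Also: the screen sought inhibitors.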 As to conditions: purified enzyme, resorufin glucoside fluorescence (screen aimed at inhibitors), 20 min. The procedure, abridged:
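Compounds titrated against 0.2 nM normal enzyme, 30 uM resorufin beta-D-glucopyranoside substrate, citrate/phosphate buffer with taurocholate and tween-20, pH 5.9. Reaction ran 20 min at room temperature; fluorescence (Ex 548/Em 600) gave AC50.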
With `Cc1cc(C)c(C2C(C#N)=C(N)Oc3n[nH]c(C)c32)cc1CN1CCCC1` (configuration not stated), the Potency is inactive: > 76.9 µM.
Under `COc1ccc(C(=O)CSc2nc3nc(C)cc(C)c3c(=O)[nH]2)cc1OC` stands inactive: > 76.9 µM; under `CCOCc1nnc(NC(=O)c2ccco2)s1`, inactive: > 76.9 µM.
Next, `O=C(NCc1ccc2c(c1)OCO2)c1cc(-c2ccccc2)on1`: inactive: > 76.9 µM; `CCOC(=O)C(NC(=O)c1ccc(OC)cc1)(N1CCOCC1)C(F)(F)F` (configuration not stated): inactive: > 76.9 µM.
With `CC1CCN(C(=O)CSc2nc(N)c3c4c(sc3n2)CN(C)CC4)CC1`, the Potency is inactive: > 76.9 µM.
Next, `O=C(Cn1cnc2c(cnn2-c2ccc(Cl)cc2)c1=O)NCCc1ccccc1`: inactive: > 76.9 µM.
Next, `Cc1ccc(Cn2ccc(NC(=O)CCSc3nc(-c4ccco4)cc(C(F)(F)F)n3)n2)cc1`: inactive: > 76.9 µM; `COc1ccccc1CNC(=O)COC(=O)c1ccc(S(=O)(=O)N2CCCC2)cc1`: inactive: > 76.9 µM; `O=C(Nc1ccn(Cc2ccc(Cl)cc2)n1)c1ccc2c(c1)OCO2`: inactive: > 76.9 µM.
Under `CCCCCn1c(CN2CCN(Cc3ccccc3)CC2)nc2c1c(=O)[nH]c(=O)n2C` stands inactive: > 76.9 µM.
For `COc1ccc(Cc2nnc(SCc3nc4ccccc4c(=O)[nH]3)n2C)cc1`, the Potency was inactive: > 76.9 µM.
With `CNCc1cc2ccc(C)cc2[nH]c1=O`, the Potency was inactive: > 76.9 µM.
Next, `CC1CCc2c(sc3ncn4c(SCC(=O)NCc5ccco5)nnc4c23)C1` (configuration not stated): inactive: > 76.9 µM; `COc1ccccc1C1CC(=O)NC(C)=C1C(=O)OCC(C)C` (configuration not stated): inactive: > 76.9 µM.
Under `CCC(C)NC(=O)c1cn(C)c(=O)c2cc(OC)c(OC)cc12` (configuration not stated) stands inactive: > 76.9 µM.
Under `CCCC(CCC(=O)NC1CCCCC1)C(=O)O` (configuration not stated) stands inactive: > 76.9 µM.
Turning to `CCCC(=O)N(c1ccc2oc(=O)sc2c1)S(=O)(=O)c1cccs1`, the Potency is inactive: > 76.9 µM.
For the compound `c1ccc(OCCn2cnc3ccccc32)cc1`, the Potency was inactive: > 76.9 µM.
Under `CCCCOc1ccc(NC(=O)Cn2c(=O)ccc3c(C)cc(C)nc32)cc1` stands inactive: > 76.9 µM.
Under `Nc1ccc(-c2n[nH]c(=O)c3ccccc23)cc1N` stands inactive: > 76.9 µM; under `O=C1c2ccccc2C(=O)N1CCn1nc(Cl)nc1Cl`, inactive: > 76.9 µM; under `COC(=O)c1sc(N2C(=O)c3oc4ccccc4c(=O)c3C2c2cccs2)nc1C` (configuration not stated), inactive: > 76.9 µM.
Turning to `COc1ccc(S(=O)(=O)N2CCC(C(=O)NCc3ccco3)CC2)cc1`, the Potency is inactive: > 76.9 µM.
Under `Cc1nn(C)cc1CNC(=O)c1cc2n(n1)C(C(F)(F)F)CC(c1cccs1)N2` (configuration not stated) stands inactive: > 76.9 µM; under `Nc1nnc(SCc2ccccc2F)n1-c1ccccc1`, inactive: > 76.9 µM; under `COCCNC(=O)c1cc2cc(Br)cc(OC)c2oc1=O`, inactive: > 76.9 µM.
Next, `CCOC(=O)CSc1nnc(CNC(=O)Cc2ccccc2)n1-c1ccccc1OC`: inactive: > 76.9 µM; `CCc1nc(-c2ccc(-c3ccc(OC)cc3)nc2OC)no1`: inactive: > 76.9 µM; `Cn1nnnc1SCC(=O)N1CCN(c2cccc(Cl)c2)CC1`: inactive: > 76.9 µM.
Under `Cc1ccc2c(CC(=O)N3CCN(S(=O)(=O)c4ccc5c(c4)OCCO5)CC3)coc2c1` stands inactive: > 76.9 µM; under `Cc1ccc(NC(=O)c2noc3c2CCCCC3)cc1`, inactive: > 76.9 µM; under `CCc1cc2ccc(OC)cc2nc1SCC(=O)Nc1cc(C)on1`, inactive: > 76.9 µM.
As for `COc1ccc(Cc2n[nH]c(=O)c3ccccc23)cc1OC`, the Potency was inactive: > 76.9 µM.
Next, `COc1cc(-c2nnc3sc(-c4cccnc4)nn23)cc(OC)c1OC`: inactive: > 76.9 µM; `CCC(c1nnnn1C(C)C)N1CCN(C2CCCC2)CC1` (configuration not stated): inactive: > 76.9 µM; `Cc1ccc(S(=O)(=O)NC(CC(=O)O)c2ccccc2)cc1` (configuration not stated): inactive: > 76.9 µM.
Next, `CCN(CC)c1nc(C#N)cc(-c2ccc(OC)cc2)n1`: “inactive”; `CC(C)OC(=O)Cn1cnc2ccc(Br)cc2c1=O`: inactive: > 76.9 µM.
With `CCOc1ccc(/C(O)=C2\C(=O)C(=O)N(CCN(C)C)C2c2cc(OC)ccc2OC)cc1Cl` (configuration not stated), the Potency is inactive: > 76.9 µM.
Next, `O=S(=O)(c1cc(C(F)(F)F)ccc1Cl)N1CCCCCC1`: inactive: > 76.9 µM; `CCOC(=O)C1C(c2ccc3c(c2)OCO3)NC(=O)NC1(O)C(F)(F)F` (configuration not stated): inactive: > 76.9 µM; `CC(=O)c1cccc(NC(=O)CC2SC(N3CCCCC3)=NC2=O)c1` (configuration not stated): inactive: > 76.9 µM.
Under `O=C(NCc1ccco1)C1CN(S(=O)(=O)c2ccccc2)CCN1S(=O)(=O)c1ccccc1` (configuration not stated) stands inactive: > 76.9 µM.
Next, `COc1ccc(CNC(=O)c2cccc(N(C)C)c2)cc1`: inactive: > 76.9 µM.
Take `CCc1nc(N2CCCC2C(=O)O)c2oc3ccccc3c2n1` (configuration not stated): the Potency was inactive: > 76.9 µM.
Next, `N#Cc1c(N)nc(SCC(=O)OCc2ccccc2)c(C#N)c1-c1ccco1`: inactive: > 76.9 µM; `O=C(CS(=O)(=O)Cc1ccccc1)Nc1ncccn1`: inactive: > 76.9 µM; `Nc1nnc(SCc2ccc(F)cc2)s1`: inactive: > 76.9 µM.
Next, `Cc1ccc(S(=O)(=O)N2CCN(C(=O)c3c(C)nn(-c4ccccc4)c3Cl)CC2)cc1`: inactive: > 76.9 µM; `COc1ccc(S(=O)(=O)Nc2ccc(S(=O)(=O)Nc3nc(C)cc(C)n3)cc2)cc1OC`: inactive: > 76.9 µM.
Next, `Cn1c(CCNC(=O)C(C)(C)C)nc2ccccc21`: inactive: > 76.9 µM; `CCOC(=O)N1CCN(C(=O)CSc2nc3ccccc3c(=O)n2-c2ccccc2)CC1`: inactive: > 76.9 µM.
`CCOC(=O)C(C)On1c(SC(C)C(=O)OCC)nc2ccccc2c1=O` (configuration not stated): the Potency was inactive: > 76.9 µM.
Next, `Cc1ccc(CN2C(=O)CCC2C(=O)NCCCN2CCCCC2C)cc1` (configuration not stated): inactive: > 76.9 µM; `Cc1nc(N2CCCC2C(=O)O)c2oc3ccccc3c2n1` (configuration not stated): inactive: > 76.9 µM; `O=C(CCn1nnc2ccccc21)N1CCC(O)(c2cccc(F)c2)CC1`: inactive: > 76.9 µM.
Under `O=C(CCN1C(=O)C2C3C=CC(C3)C2C1=O)NCCN1CCCc2ccccc21` (configuration not stated) stands inactive: > 76.9 µM.
Next, `C=CCNC(=O)C1CC(c2cccc(OC)c2)=NO1` (configuration not stated): inactive: > 76.9 µM; `Cc1ccc2c(c1)N(Cc1ccccn1)C(=O)C(C)O2` (configuration not stated): inactive: > 76.9 µM; `O=C1Nc2ccccc2N=C(c2ccccc2)C1N1CCOCC1` (configuration not stated): inactive: > 76.9 µM.
With `COc1cccc(C(O)CC(N)=O)c1` (configuration not stated), the Potency is inactive: > 76.9 µM.
Next, `COCC(=O)OCn1nnc2ccccc2c1=O`: inactive: > 76.9 µM.
With `CC(=O)c1c(C)[nH]c(C(=O)OCn2nnc3ccccc3c2=O)c1C`, the Potency was inactive: > 76.9 µM.
Next, `O=C(CSc1nnnn1C1CCCCC1)NCc1ccco1`: inactive: > 76.9 µM; `CC(CCc1ccccc1)NC(=O)CSc1nnnn1C` (configuration not stated): inactive: > 76.9 µM.
Next, `CC1CCC(NC(=O)C2c3ccccc3C(=O)N2CCCN2CCOCC2)CC1` (configuration not stated): inactive: > 76.9 µM; `O=S(=O)(Nc1ccc(-c2nc3ccccc3o2)cc1)c1ccccc1`: inactive: > 76.9 µM.
Next, `CCCn1cc(NC(=O)C2CC(c3cccc(Br)c3)=NO2)cn1` (configuration not stated): inactive: > 76.9 µM; `O=C(O)CCc1ccc(-c2cccs2)n1CCC(=O)O`: inactive: > 76.9 µM.
Turning to `CC(C)(C)C(=O)CNS(=O)(=O)c1ccc(S(=O)(=O)NC2CCCC2)cc1`, the Potency was inactive: > 76.9 µM.
Turning to `O=C(NCCC1=CCCCC1)C1CCN(S(=O)(=O)c2cccc3nonc23)CC1`, the Potency was inactive: > 76.9 µM.
Under `COc1ccccc1Nc1ncc(C(C)=O)c(C)n1` stands inactive: > 76.9 µM.
Next, `COc1cccc(-n2c(SCC(=O)Nc3cc(C)on3)nc3ccccc3c2=O)c1`: inactive: > 76.9 µM; `Cc1nc(CSc2nnc(C)s2)cs1`: inactive: > 76.9 µM.
On to `CC(C)[C@H](NC(=O)Nc1cccc(C(F)(F)F)c1)C(=O)O`, for which the Potency is inactive: > 76.9 µM.
Next, `O=C(CSc1nc(-c2ccccc2)cc(=O)[nH]1)N1CCc2ccccc21`: inactive: > 76.9 µM; `Cc1ccc(N2C(=O)C3C4C=CC(C4)C3C2=O)cc1` (configuration not stated): inactive: > 76.9 µM.
Under `CCN1C(=O)/C(=C2\SC(=S)N(CCCOC)C2=O)c2ccccc21` stands inactive: > 76.9 µM; under `CS(=O)(=O)N1CCC(C(=O)Nc2ccccc2F)CC1`, inactive: > 76.9 µM.
Under `Cc1c(Cl)cccc1NC(=O)NC1CCCCC1` stands inactive: > 76.9 µM.
In the case of `CCCn1c(NCc2cccc(OC)c2OC)nc2ccccc21`, the Potency was inactive: > 15.4 µM.
Next, `CN(C)c1ccc(P(=O)(OCc2ccccc2)C(O)c2cccnc2)cc1` (configuration not stated): inactive: > 76.9 µM; `O=S(=O)(c1cccs1)n1cccn1`: inactive: > 76.9 µM; `O=C1CCCC2=C1C(Cc1ccccc1)C1=C(CCCC1=O)O2`: inactive: > 76.9 µM.
Under `O=C(CSc1ncnc2c1oc1ccccc12)N1CCCc2ccccc21` stands inactive: > 76.9 µM; under `CCN1CCN(CCNC(=O)c2cn(Cc3ccccc3F)nn2)CC1`, inactive: > 76.9 µM; under `CC(=O)Nc1cccc(Oc2ccc(-c3noc(C)n3)cc2)c1`, inactive: > 76.9 µM.
Next, `O=C1CCCC2=C1C(c1cccs1)n1nc(SCc3ccccc3F)nc1N2` (configuration not stated): inactive: > 76.9 µM.
On to `Cc1cc(NC(=O)COc2ccc(Cl)cc2Cl)n(CCC#N)n1`, for which the Potency was inactive: > 76.9 µM.
Under `CC(C)(C)c1nnc2sc(SCCN3C(=O)c4ccccc4C3=O)nn2c1=O` stands inactive: > 76.9 µM; under `CCCc1nc(SCC(=O)N2CCCC2)c2ccccc2n1`, inactive: > 76.9 µM.
